{
  "source": "the supplement of paper PMC12889115",
  "key": {"[1]": {"tested_on": "Salmonella enterica serovar Typhimurium SL1344", "assay": "bacterial growth OD600 after 18 h in MHB with 0.5 µg/mL polymyxin B; higher = more bacterial growth (less inhibition)", "details": "25 µM; polymyxin B 0.5 µg/mL; system: broth", "procedure": "(§1)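 Secondary screen of the 553 primary hits at 25 µM. (i) S. Typhimurium SL1344 grown in Mueller-Hinton broth with 0.5 µg/mL polymyxin B, OD600 read after 18 h. (ii) SAFIRE assay: RAW 264.7 macrophages infected with S. Typhimurium sifB::gfp (MOI 30); compound added 2 h post-infection; cells fixed at 18 h; GFP-positive pixel fraction per macrophage imaged by confocal microscopy and expressed as % of DMSO control.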"}, "[2]": {"tested_on": "Salmonella enterica serovar Typhimurium SL1344", "assay": "intramacrophage bacterial GFP load (SAFIRE), percent of DMSO control (% of DMSO); higher = more intracellular bacteria (less inhibition)", "details": "25 µM; system: infected RAW 264.7 macrophages", "procedure": "as §1"}},
  "note": "The other results are listed elsewhere or left out. Cut-off read from the data, not from the text of the source: active = 25% or less and inactive = the rest. Many values rest on one well or one pass, so single values are uncertain.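 Throughout, for bacterial growth OD600 after 18 h in MHB with 0.5 µg/mL polymyxin B: polymyxin B level opens the outer membrane while sparing the inner membrane, with novobiocin wells as reference growth inhibitor.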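 Throughout, for intramacrophage bacterial GFP load (SAFIRE), percent of DMSO control: compounds tested were the hits of an earlier 50 µM broth growth screen of a drug-like diversity library run with polymyxin B.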",
  "data": [
    {"smiles": "O=C1OCCN1CCNc1ccc(-c2nc(-c3cccc(Cl)c3)no2)cn1", "values": [
      {"measurement": "bacterial growth OD600", "setting": "[1]", "value": -0.002},
      {"measurement": "intramacrophage bacterial GFP load", "setting": "[2]", "value": "inactive: 298"}
    ]},
    {"smiles": "Cc1cc(C)n(CC(=O)N(Cc2ccncc2)Cc2cccc(OCCc3ccc(F)cc3)c2)n1", "values": [
      {"measurement": "bacterial growth OD600", "setting": "[1]", "value": 0.001},
      {"measurement": "intramacrophage bacterial GFP load", "setting": "[2]", "value": "inactive: 189"}
    ]},
    {"smiles": "O=C(NCc1n[nH]c2c1CCC2)c1coc(COc2ccc(F)cc2)n1", "values": [
      {"measurement": "bacterial growth OD600", "setting": "[1]", "value": 0.5},
      {"measurement": "intramacrophage bacterial GFP load", "setting": "[2]", "value": "inactive: 175"}
    ]},
    {"smiles": "Cc1cc(C)n2nc(C(=O)N(Cc3ccncc3)Cc3cccc(OCCc4ccc(F)cc4)c3)cc2n1", "values": [
      {"measurement": "bacterial growth OD600", "setting": "[1]", "value": -0.003},
      {"measurement": "intramacrophage bacterial GFP load", "setting": "[2]", "value": "inactive: 103"}
    ]},
    {"smiles": "CC(O)(COc1ccccc1)c1ccc2c(c1)CN(Cc1ccc(F)cc1)CCO2", "note": "(centres undefined)", "values": [
      {"measurement": "bacterial growth OD600", "setting": "[1]", "value": -0.01},
      {"measurement": "intramacrophage bacterial GFP load", "setting": "[2]", "value": "inactive: 45.2"}
    ]},
    {"smiles": "CCOC(=O)C1(Cc2ccccc2C)CCCN(S(=O)(=O)c2c(C)noc2C)C1", "note": "(centres undefined)", "values": [
      {"measurement": "bacterial growth OD600", "setting": "[1]", "value": -0.005},
      {"measurement": "intramacrophage bacterial GFP load", "setting": "[2]", "value": "inactive: 80.2"}
    ]},
    {"smiles": "CCOC(=O)C1(CCc2ccccc2)CCCN(Cc2cnc(SC)nc2)C1", "note": "(centres undefined)", "values": [
      {"measurement": "bacterial growth OD600", "setting": "[1]", "value": 0.003},
      {"measurement": "intramacrophage bacterial GFP load", "setting": "[2]", "value": "active: 22.9"}
    ]},
    {"smiles": "COc1ccc2c(c1)OC(C)CN(CC(C)Cc1ccc3c(c1)OCO3)C2", "note": "(centres undefined)", "values": [
      {"measurement": "bacterial growth OD600", "setting": "[1]", "value": 0.004},
      {"measurement": "intramacrophage bacterial GFP load", "setting": "[2]", "value": "active: 15.2"}
    ]},
    {"smiles": "CN(CCc1ccccn1)C(=O)c1csc2nc(-c3ccc(Cl)cc3)cn12", "values": [
      {"measurement": "bacterial growth OD600", "setting": "[1]", "value": 0.454},
      {"measurement": "intramacrophage bacterial GFP load", "setting": "[2]", "value": "inactive: 102"}
    ]},
    {"smiles": "OC(CCc1ccccc1)c1ccc2c(c1)CN(Cc1cccc3c1OCO3)CCO2", "note": "(centres undefined)", "values": [
      {"measurement": "bacterial growth OD600", "setting": "[1]", "value": -0.005},
      {"measurement": "intramacrophage bacterial GFP load", "setting": "[2]", "value": "inactive: 58.1"}
    ]},
    {"smiles": "O=C(c1ccc(NC2CC2)nc1)N1CCCC(c2ccccc2)CC1", "note": "(centres undefined)", "values": [
      {"measurement": "bacterial growth OD600", "setting": "[1]", "value": 0.007},
      {"measurement": "intramacrophage bacterial GFP load", "setting": "[2]", "value": "inactive: 122"}
    ]},
    {"smiles": "CN(C(=O)c1cccs1)C(Cc1ccccc1)C1CCN(C(=O)c2ccc(-n3cccn3)cc2)CC1", "note": "(centres undefined)", "values": [
      {"measurement": "bacterial growth OD600", "setting": "[1]", "value": 0.004},
      {"measurement": "intramacrophage bacterial GFP load", "setting": "[2]", "value": "inactive: 119"}
    ]},
    {"smiles": "COc1ccc2c(C)nc(N3CCCC(C(=O)N4CCC(C(O)c5ccccc5)CC4)C3)nc2c1", "note": "(centres undefined)", "values": [
      {"measurement": "bacterial growth OD600", "setting": "[1]", "value": -0.004},
      {"measurement": "intramacrophage bacterial GFP load", "setting": "[2]", "value": "inactive: 93.8"}
    ]},
    {"smiles": "Cc1cc(C(=O)N(C)C(Cc2ccccc2)C2CCN(C(=O)/C(F)=C/c3ccccc3)CC2)n(C)n1", "note": "(centres undefined)", "values": [
      {"measurement": "bacterial growth OD600", "setting": "[1]", "value": 0.003},
      {"measurement": "intramacrophage bacterial GFP load", "setting": "[2]", "value": "inactive: 40"}
    ]},
    {"smiles": "O=C(CCN1Cc2ccccc2OC(c2ccccc2)C1)NCc1cc(-c2ccccc2)[nH]n1", "note": "(centres undefined)", "values": [
      {"measurement": "bacterial growth OD600", "setting": "[1]", "value": -0.004},
      {"measurement": "intramacrophage bacterial GFP load", "setting": "[2]", "value": "inactive: 84"}
    ]},
    {"smiles": "O=C(c1coc(COc2ccc3c(c2)OCO3)n1)N1CC[C@@H]2CCCC[C@H]2C1", "values": [
      {"measurement": "bacterial growth OD600", "setting": "[1]", "value": 0.691},
      {"measurement": "intramacrophage bacterial GFP load", "setting": "[2]", "value": "inactive: 55.4"}
    ]},
    {"smiles": "COc1ccc(-c2noc(CN3CCC(O)(c4cccc(C(F)(F)F)c4)CC3)n2)cc1", "values": [
      {"measurement": "bacterial growth OD600", "setting": "[1]", "value": 0.002},
      {"measurement": "intramacrophage bacterial GFP load", "setting": "[2]", "value": "inactive: 106"}
    ]},
    {"smiles": "O=C(c1cn2ccsc2n1)N(Cc1ccncc1)Cc1cccc(OCCc2ccc(F)cc2)c1", "values": [
      {"measurement": "bacterial growth OD600", "setting": "[1]", "value": -0.007},
      {"measurement": "intramacrophage bacterial GFP load", "setting": "[2]", "value": "inactive: 127"}
    ]},
    {"smiles": "Cc1nc(N2CCC(C(=O)N(C)Cc3ccc(C(F)(F)F)cc3)CC2)nc2ccccc12", "values": [
      {"measurement": "bacterial growth OD600", "setting": "[1]", "value": -0.008},
      {"measurement": "intramacrophage bacterial GFP load", "setting": "[2]", "value": "inactive: 53.3"}
    ]},
    {"smiles": "Cc1ccc2c(c1)CN(CC(=O)NCc1cnn(Cc3ccccc3)c1)CC(c1ccsc1)O2", "note": "(centres undefined)", "values": [
      {"measurement": "intramacrophage bacterial GFP load", "setting": "[2]", "value": "inactive: 54.4"}
    ]},
    {"smiles": "CCn1ccnc1CN1CCCC1C(=O)Nc1ccc(-c2cccc(F)c2)cc1", "note": "(centres undefined)", "values": [
      {"measurement": "intramacrophage bacterial GFP load", "setting": "[2]", "value": "active: 7.43"}
    ]},
    {"smiles": "CN(Cc1ccccc1)C1(C(=O)N2CCC[C@H]2CO)Cc2ccccc2C1", "values": [
      {"measurement": "intramacrophage bacterial GFP load", "setting": "[2]", "value": "active: 24"}
    ]},
    {"smiles": "COc1ccccc1-c1cn2c(C(=O)N3CCCCC3c3ccccn3)csc2n1", "note": "(centres undefined)", "values": [
      {"measurement": "intramacrophage bacterial GFP load", "setting": "[2]", "value": "inactive: 118"}
    ]},
    {"smiles": "CC1CN(Cc2ccsc2)Cc2cc(Cl)ccc2O1", "note": "(centres undefined)", "values": [
      {"measurement": "intramacrophage bacterial GFP load", "setting": "[2]", "value": "inactive: 121"}
    ]},
    {"smiles": "c1cc(C2CCCCC2)ccc1-c1cnnc(N2CCOCC2)n1", "values": [
      {"measurement": "intramacrophage bacterial GFP load", "setting": "[2]", "value": "inactive: 85.4"}
    ]},
    {"smiles": "COc1cccc(NC(=O)CCC2CCN(S(=O)(=O)c3cc(C)cs3)CC2)c1", "values": [
      {"measurement": "intramacrophage bacterial GFP load", "setting": "[2]", "value": "inactive: 119"}
    ]},
    {"smiles": "O=C(Nc1ccc(Oc2cccnc2)cc1)C1CCN(Cc2cccc(Cl)c2)CC1", "values": [
      {"measurement": "intramacrophage bacterial GFP load", "setting": "[2]", "value": "active: 1.67"}
    ]},
    {"smiles": "COc1ccc(-c2noc(CN(C)Cc3cnn(-c4ccccc4C)c3)n2)cc1", "values": [
      {"measurement": "intramacrophage bacterial GFP load", "setting": "[2]", "value": "inactive: 114"}
    ]},
    {"smiles": "Cc1nonc1CN(C)C(=O)CC(c1ccccc1)c1cccc(Cl)c1", "note": "(centres undefined)", "values": [
      {"measurement": "intramacrophage bacterial GFP load", "setting": "[2]", "value": "inactive: 39.6"}
    ]},
    {"smiles": "COCc1ccc(CN2CCCC(C(=O)Nc3ccccc3-c3ccc(OC)cc3)C2)o1", "note": "(centres undefined)", "values": [
      {"measurement": "intramacrophage bacterial GFP load", "setting": "[2]", "value": "inactive: 37.6"}
    ]}
  ]
}
